{"source": "paper PMC6212790", "note": "This is one part of the list. At the low end of the ranking the order means little.", "data": [{"biological_target": "T1, GST-Rok (full length) (UniProt O34857)", "T1 sequence": "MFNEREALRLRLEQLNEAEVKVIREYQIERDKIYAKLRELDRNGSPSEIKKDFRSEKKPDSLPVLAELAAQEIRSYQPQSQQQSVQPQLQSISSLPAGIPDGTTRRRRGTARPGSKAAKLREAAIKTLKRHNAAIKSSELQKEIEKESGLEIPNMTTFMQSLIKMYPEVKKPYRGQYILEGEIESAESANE", "experiment": "protein binding microarray;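 further: rank score from −0.5 (least bound) to 0.5 (best bound)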", "details": "Rok is a gene silencer of Bacillus subtilis; high values mean tight binding; most listed sequences are background and not binding sites; double strand, one strand shown", "units": {"binding signal": "E-score"}, "values": [{"sequence": "AGCCACCG", "binding signal": -0.0803}, {"sequence": "CTATCACA", "binding signal": 0.234}, {"sequence": "GGCCGCTA", "binding signal": -0.0662}, {"sequence": "ACTCTAGC", "binding signal": -0.0939}, {"sequence": "CTTACTAC", "binding signal": 0.169}, {"sequence": "CACGTGAG", "binding signal": -0.136}, {"sequence": "CTGCCGGA", "binding signal": -0.123}, {"sequence": "TACTTCCA", "binding signal": 0.00573}, {"sequence": "ATTTCAAA", "binding signal": 0.0598}, {"sequence": "AAATGTTC", "binding signal": 0.156}, {"sequence": "CTGTCCTC", "binding signal": -0.249}, {"sequence": "TGGTTGAA", "binding signal": -0.0706}, {"sequence": "CTTGGTAA", "binding signal": -0.0712}, {"sequence": "AACCTCGC", "binding signal": -0.106}, {"sequence": "CGGGTGCA", "binding signal": -0.174}, {"sequence": "GGGTATTA", "binding signal": 0.0968}, {"sequence": "ATTTCGGA", "binding signal": 0.078}, {"sequence": "ACTCCAAA", "binding signal": -0.171}, {"sequence": "GTCCGACA", "binding signal": 0.0564}, {"sequence": "GACAGACC", "binding signal": -0.414}, {"sequence": "CGAATGAC", "binding signal": 0.0818}, {"sequence": "ATGTTTAC", "binding signal": 0.189}, {"sequence": "ATCCATAA", "binding signal": 0.16}, {"sequence": "AAAAACTT", "binding signal": -0.0545}, {"sequence": "ATACGGGC", "binding signal": -0.183}, {"sequence": "ATCCCCGG", "binding signal": -0.271}, {"sequence": "CTGTTTAC", "binding signal": -0.00986}, {"sequence": "AGACGCGG", "binding signal": -0.304}, {"sequence": "TATTAGCA", "binding signal": 0.185}, {"sequence": "AGTGTTAG", "binding signal": 0.118}, {"sequence": "AAAATAAG", "binding signal": 0.139}, {"sequence": "AGTGCTTA", "binding signal": -0.0692}, {"sequence": "AGTATGGC", "binding signal": 0.227}, {"sequence": "CTCGACTC", "binding signal": -0.114}, {"sequence": "ATAGGATA", "binding signal": 0.226}, {"sequence": "AAAACTAG", "binding signal": 0.334}, {"sequence": "ACCATAGG", "binding signal": 0.176}, {"sequence": "TTCCGAAA", "binding signal": 0.0338}, {"sequence": "ATCGGAAT", "binding signal": 0.127}, {"sequence": "ATGTTTCA", "binding signal": 0.158}, {"sequence": "AATCATTC", "binding signal": 0.145}, {"sequence": "AGCTGTGA", "binding signal": 0.0841}, {"sequence": "AATGAACT", "binding signal": 0.0863}, {"sequence": "CGGCCCCC", "binding signal": -0.373}, {"sequence": "CGTGCATC", "binding signal": -0.105}, {"sequence": "CTTAGGAA", "binding signal": -0.18}, {"sequence": "AGGCTCAC", "binding signal": -0.184}, {"sequence": "GAAGTCTC", "binding signal": -0.271}, {"sequence": "CTATTTCC", "binding signal": 0.18}, {"sequence": "AAGACACA", "binding signal": 0.0109}, {"sequence": "GGGTGCCA", "binding signal": -0.243}, {"sequence": "CGCCCTTA", "binding signal": -0.158}, {"sequence": "ATCATATA", "binding signal": 0.215}, {"sequence": "CAAATCGG", "binding signal": -0.0828}, {"sequence": "GGTAGTGA", "binding signal": 0.156}, {"sequence": "ATGACGGC", "binding signal": -0.119}, {"sequence": "ACCGGTGG", "binding signal": -0.196}, {"sequence": "AGAATTGC", "binding signal": 0.132}, {"sequence": "ATCCGACG", "binding signal": -0.0128}, {"sequence": "GATAGGGC", "binding signal": -0.0329}, {"sequence": "ACGCTTAC", "binding signal": -0.00582}, {"sequence": "GGCAAGTA", "binding signal": -0.00745}, {"sequence": "CCAAGAGA", "binding signal": -0.0918}, {"sequence": "CTGGGTTA", "binding signal": -0.143}, {"sequence": "CTGTGCCA", "binding signal": -0.131}, {"sequence": "GTGTGGTA", "binding signal": 0.213}, {"sequence": "GGGTACCC", "binding signal": -0.368}, {"sequence": "AGAGCGAG", "binding signal": -0.0881}, {"sequence": "GTGTCACA", "binding signal": 0.0367}, {"sequence": "CTTCCTGA", "binding signal": 0.0315}, {"sequence": "AATGGATG", "binding signal": 0.0828}, {"sequence": "AAGCTGTA", "binding signal": 0.0695}, {"sequence": "GACGTAAA", "binding signal": 0.0779}, {"sequence": "ATCCTACA", "binding signal": 0.175}, {"sequence": "ACGGAACC", "binding signal": -0.00314}, {"sequence": "TACAGGGA", "binding signal": -0.148}, {"sequence": "CAACGTCA", "binding signal": 0.0363}, {"sequence": "ATCGTGGC", "binding signal": -0.0292}, {"sequence": "GATTTACC", "binding signal": 0.275}, {"sequence": "GAGACATA", "binding signal": -0.0183}, {"sequence": "CGCTCTGA", "binding signal": -0.0888}, {"sequence": "CATCACAA", "binding signal": 0.122}, {"sequence": "CGCATCGA", "binding signal": 0.0566}, {"sequence": "CTCAGACC", "binding signal": -0.297}, {"sequence": "AGGTGTGA", "binding signal": -0.0745}, {"sequence": "GCCTCCGC", "binding signal": -0.196}, {"sequence": "TATCGATA", "binding signal": 0.376}, {"sequence": "AGGCAACT", "binding signal": -0.0745}, {"sequence": "GGAAGGAA", "binding signal": -0.229}, {"sequence": "CGGCTATA", "binding signal": 0.0583}, {"sequence": "CCCGCAAA", "binding signal": -0.115}, {"sequence": "CCATATGG", "binding signal": -0.182}, {"sequence": "ATGTGCGA", "binding signal": -0.00406}, {"sequence": "CTAGTACA", "binding signal": 0.291}, {"sequence": "GACACGGC", "binding signal": -0.102}, {"sequence": "TATTTTGA", "binding signal": 0.267}, {"sequence": "CACTCACC", "binding signal": 0.177}, {"sequence": "AGCAAGGG", "binding signal": -0.209}, {"sequence": "CGGGTTCA", "binding signal": -0.29}, {"sequence": "ATCGGACA", "binding signal": 0.0141}, {"sequence": "ACCAGGAT", "binding signal": -0.148}, {"sequence": "AGCTAGCA", "binding signal": 0.204}, {"sequence": "ACAGTCCG", "binding signal": -0.114}, {"sequence": "GTAGGCCA", "binding signal": 0.0362}, {"sequence": "CAGGGTTC", "binding signal": -0.172}, {"sequence": "GTCTACAC", "binding signal": -0.0482}, {"sequence": "CTGGCATC", "binding signal": -0.116}, {"sequence": "AGGACAGA", "binding signal": -0.147}, {"sequence": "TGATAGAA", "binding signal": 0.388}]}]}
